Measured values: article PMC10715591, “EspB and HtpG interact with the type III-A CRISPR/Cas system of Mycobacterium tuberculosis” (Frontiers in Molecular Biosciences, 2023)

Target: T1, MtbCsm1 (Mycobacterium tuberculosis, UniProt P71629 1-809)
T1 construct: also called Cas10; MtbMBP-csm1
T1 sequence: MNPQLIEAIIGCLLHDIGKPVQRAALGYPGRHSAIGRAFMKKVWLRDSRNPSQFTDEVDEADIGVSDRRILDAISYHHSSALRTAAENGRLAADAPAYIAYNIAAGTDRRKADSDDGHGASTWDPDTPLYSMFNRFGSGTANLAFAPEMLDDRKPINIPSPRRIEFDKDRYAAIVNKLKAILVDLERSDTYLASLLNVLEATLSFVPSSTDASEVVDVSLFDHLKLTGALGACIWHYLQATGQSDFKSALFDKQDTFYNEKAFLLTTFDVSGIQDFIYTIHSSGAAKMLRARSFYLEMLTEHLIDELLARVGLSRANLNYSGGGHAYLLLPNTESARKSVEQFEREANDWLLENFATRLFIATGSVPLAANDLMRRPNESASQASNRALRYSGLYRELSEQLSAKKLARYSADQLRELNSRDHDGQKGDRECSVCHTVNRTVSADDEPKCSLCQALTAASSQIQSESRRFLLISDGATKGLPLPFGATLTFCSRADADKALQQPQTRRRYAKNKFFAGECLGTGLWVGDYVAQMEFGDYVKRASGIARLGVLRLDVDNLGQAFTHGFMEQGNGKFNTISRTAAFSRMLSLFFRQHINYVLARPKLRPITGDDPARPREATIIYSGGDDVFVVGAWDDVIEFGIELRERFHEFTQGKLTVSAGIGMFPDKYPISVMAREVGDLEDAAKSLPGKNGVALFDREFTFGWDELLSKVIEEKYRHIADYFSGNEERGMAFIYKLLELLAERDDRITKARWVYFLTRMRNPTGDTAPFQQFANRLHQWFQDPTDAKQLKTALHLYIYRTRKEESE
Experiment: SPR; Biacore 8K, 25°C; EspB covalently immobilised on a CM5 chip; analytes injected at 25-3,200 nM, 30 uL/min for 2 min; global fit to a 1:1 mass transport model
Conditions: both partners purified

B1: ESX-1 secretion-associated protein EspB (natural protein)
chain: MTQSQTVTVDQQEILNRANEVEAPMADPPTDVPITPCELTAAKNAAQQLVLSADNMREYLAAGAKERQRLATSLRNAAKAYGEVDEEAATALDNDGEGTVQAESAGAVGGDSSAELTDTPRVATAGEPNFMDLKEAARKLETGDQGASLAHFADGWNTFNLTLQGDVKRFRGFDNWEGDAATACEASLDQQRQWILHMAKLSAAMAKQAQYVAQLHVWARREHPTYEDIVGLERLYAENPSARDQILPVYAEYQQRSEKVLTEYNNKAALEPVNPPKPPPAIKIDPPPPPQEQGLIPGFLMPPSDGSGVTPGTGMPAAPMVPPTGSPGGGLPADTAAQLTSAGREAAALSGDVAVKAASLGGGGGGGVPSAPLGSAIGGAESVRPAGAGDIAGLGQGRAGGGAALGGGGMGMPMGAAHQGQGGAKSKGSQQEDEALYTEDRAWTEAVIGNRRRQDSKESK
notes: also called Esx-1 secreted protein B
In the case of B1, the Kd is reported as 16.7 nM, the koff is reported as 0.000792 s⁻¹ and the kon is reported as 47300 M⁻¹ s⁻¹.
